Measured values as given in article PMC4336329 (PLoS ONE, 2015).
In all, about 310,000 compounds went through this assay and about 14,000 (4.5%) showed an effect of 50% or more. The effect is printed as a negative number. This is one part of the list.

Biological target: human ether-à-go-go-related gene (hERG) potassium channel (human, UniProt Q12809)
Assay: primary screen, population patch clamp on CHO cells stably expressing hERG
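Also: peak tail current of the secondary pulse compared with the same well before compound.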

Chain of human ether-à-go-go-related gene (hERG) potassium channel (Q12809 whole entry, looked up): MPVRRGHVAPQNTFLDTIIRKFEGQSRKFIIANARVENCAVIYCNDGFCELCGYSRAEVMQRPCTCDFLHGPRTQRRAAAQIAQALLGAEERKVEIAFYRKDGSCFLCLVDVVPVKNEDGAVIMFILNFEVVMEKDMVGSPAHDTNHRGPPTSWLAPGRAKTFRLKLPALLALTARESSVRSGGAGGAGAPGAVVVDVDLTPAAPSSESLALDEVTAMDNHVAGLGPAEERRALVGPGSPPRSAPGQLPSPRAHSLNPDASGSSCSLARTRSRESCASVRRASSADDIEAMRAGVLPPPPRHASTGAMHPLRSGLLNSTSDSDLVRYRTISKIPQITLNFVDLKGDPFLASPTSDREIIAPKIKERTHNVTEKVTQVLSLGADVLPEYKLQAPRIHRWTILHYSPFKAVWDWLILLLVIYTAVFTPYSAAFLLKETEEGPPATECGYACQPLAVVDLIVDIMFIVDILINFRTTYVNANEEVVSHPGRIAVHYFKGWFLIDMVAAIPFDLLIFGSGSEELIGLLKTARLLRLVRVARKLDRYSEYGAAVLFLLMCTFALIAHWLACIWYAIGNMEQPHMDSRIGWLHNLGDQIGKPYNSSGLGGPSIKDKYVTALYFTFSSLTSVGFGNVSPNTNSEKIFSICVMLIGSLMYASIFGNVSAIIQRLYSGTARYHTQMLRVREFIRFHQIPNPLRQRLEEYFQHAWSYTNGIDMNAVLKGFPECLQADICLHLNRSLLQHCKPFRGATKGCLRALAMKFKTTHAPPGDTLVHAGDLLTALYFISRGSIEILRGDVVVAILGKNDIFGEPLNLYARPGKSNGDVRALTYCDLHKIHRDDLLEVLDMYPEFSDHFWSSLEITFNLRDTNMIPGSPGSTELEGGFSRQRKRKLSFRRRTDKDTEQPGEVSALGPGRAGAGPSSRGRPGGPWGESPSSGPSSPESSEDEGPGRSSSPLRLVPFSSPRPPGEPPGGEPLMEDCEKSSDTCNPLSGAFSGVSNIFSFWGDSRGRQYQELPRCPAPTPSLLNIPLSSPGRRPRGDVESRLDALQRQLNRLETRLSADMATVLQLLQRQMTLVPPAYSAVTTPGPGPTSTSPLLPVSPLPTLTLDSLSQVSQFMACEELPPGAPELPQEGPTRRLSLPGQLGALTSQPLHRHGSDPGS

SMILES | hERG current change (%, negative = inhibition) at 10uM [%]
CC(=O)Nc1cccc(-c2nnc(SCc3ccccc3C#N)n2C)c1 | 9.96
COC(=O)[C@@H]1C[C@H]2CC[C@H](O)C[C@H]2N1Cc1ccc(N2CCN(C)CC2)cc1 | 33.2
CCCn1c(=O)c2sccc2n2c(CCCC(=O)NCc3cccnc3)nnc12 | 19.2
Cc1ccccc1N1CCN(Cc2nc(Cc3ccccc3F)no2)CC1 | -3.53
C=CCSc1nc(C)c(CC(=O)OCC(C)C)c(=O)[nH]1 | -7.18
CCC(C)C(NC(=O)c1ccccc1NC(=O)c1ccc(OC)cc1)C(=O)NCCCn1ccnc1 (stereo not shown) | -1.96
Cc1cc(NC(=O)COc2ccc(F)c(Cl)c2)no1 | 17.7
CC1CC(C)CN(CCCNC(=O)CN2C(=O)c3cccnc3Oc3ccccc32)C1 (stereo not shown) | -5.15
CC(C)CC(=O)Nc1ccc(N2CCOCC2)cc1 | 7.68
Oc1c(Cl)cc(Cl)cc1CNc1ccc(Br)cn1 | 4.21
O=C(NCCCN1CCOCC1)c1cc(-c2cccc(Br)c2)nc2ccccc12 | -32.3
CN(C1(C)CCS(=O)(=O)C1)S(=O)(=O)c1ccc(F)cc1 (stereo not shown) | 11.6
CCNC(=O)COC(=O)CCC(=O)c1ccc(F)cc1 | 0.157
CC(=O)Nc1ccc(NC(=O)C(C)OC(=O)c2ccc(OCc3c(C)noc3C)cc2)cc1 (stereo not shown) | -12.2
O=c1c2cc([N+](=O)[O-])cc([N+](=O)[O-])c2[nH]n1-c1ccccc1 | 17.2
CC(C)Sc1nsc2nc(=O)c(/C=C3\C=Nc4ccccc43)c(N)n12 | 11.7
CC1(C)CC(=O)C(C(c2ccco2)C2C(=O)CC(C)(C)CC2=O)C(=O)C1 | -0.337
CC(=O)N1c2ccccc2NC(=O)C1(C)C | 0.176
Cc1ccc(C(=O)NN=C2CCCCCC2)s1 | 3.68
COc1ccccc1-n1cnnc1SC(C)C(=O)Nc1cccc([N+](=O)[O-])c1 (stereo not shown) | -8.19
COc1cc(C(=O)Nc2cccc(C)c2C)c(Br)c(OC)c1OC | 0.146
COCCNC(=O)N1[C@H]2CC[C@@H]1C(C(=O)OC)=C(c1ccc(OC(F)(F)F)cc1)C2 | -3.99
CN1/C(=C/c2cccc[n+]2C)Sc2ccccc21.[I-] | -22.7
COc1ccc(C2C(C(=O)Nc3cccnc3)=C(C)Nc3nc(-c4cccs4)nn32)cc1OC (stereo not shown) | 7.87
CN1CCN(c2ccc(CNS(=O)(=O)Cc3ccc(Cl)cc3)cc2)CC1 | 4.63
CCOC(=O)C1CCN(C(=O)c2n[nH]c(=O)c3ccccc23)CC1 | 15.7
CCCCC(=O)Nc1cccc(C(=O)N/N=C/c2ccc(OC)cc2OC)c1 | 9.66
O=C(CNC(=S)N(Cc1ccc(F)cc1)C1CCCCC1)NCCN1CCOCC1 | 1.9

SMILES | hERG current change (%, negative = inhibition) at 10uM [%]
CC(C)(C)n1nc2c(c1NC(=O)c1ccccc1S(=O)(=O)C(F)F)CS(=O)(=O)C2 | 22.3
Cc1cc(C)n2nc(CC(=O)NNC(=O)COc3ccccc3)nc2n1 | -2.89
CCOc1ccc(-c2c(C(=O)N/N=C/c3ccccc3)nnn2-c2nonc2N)cc1 | 10.5
OC(COc1ccc2ccccc2c1Br)Cn1cnc(-c2ccccc2)c1 (stereo not shown) | -3.32
Cc1cc(C(=O)Cn2nc(C(=O)O)c3ccccc3c2=O)c(C)n1-c1cccc(C(F)(F)F)c1 | -7.37
Cc1ccc2c(c1)C(=O)CC1(CCCC1)O2 | 9.09
Cc1c(C(=O)N2CCCC2)oc2c1-c1nn(CC(=O)NCCCN3CCCCC3C)cc1CC2 (stereo not shown) | 32.1
COC(=O)c1cc(C(=O)OC)cc(-n2c(C)cc(C=O)c2C)c1 | -1.18
COc1ccccc1C(=O)Nc1cccc(NC(=O)c2ccccc2OC)n1 | 8.14
COc1ccc(C2SCCN2S(=O)(=O)c2ccc(F)cc2)cc1OC (stereo not shown) | -4.78
Br.COc1ccc(/C(C)=N/Nc2nc(C)c(C(C)=O)s2)cc1 | 8.97
CCOC(=O)/C=C/C(=O)Nc1ccc(S(=O)(=O)N(C)c2ccccc2)cc1 | -2.23
CC1CC(=S)Nc2ccccc2N1Cc1ccccc1 (stereo not shown) | 7.21
CCCCn1c(N)c(N(CCC(C)C)C(=O)CCN2C(=O)C3CC=CCC3C2=O)c(=O)[nH]c1=O (stereo not shown) | 7.98
CCN1CCN(C(c2cccs2)C(C)NC(=O)c2cccc(OC)c2)CC1 (stereo not shown) | -4.05
CCCc1cc(C(=O)Nc2ccc(C(=O)c3ccccc3)cc2)n(C)n1 | -16
CC(C)N(Cc1ccccc1)C(=O)c1cnc2n(c1=O)CCS2 | 1.24
Cc1cc(C)c(C#N)c(SCc2nnc(-c3ccccc3)o2)n1 | -0.532
CCOC(=O)COn1c(=O)c(-c2cc3ccccc3o2)[n+]([O-])c2ccccc21 | 11.8
COc1ccc(Cl)cc1NC(=S)N1CCCCCC1 | -3.5
Cc1c(C(=O)NCC2COc3ccccc3O2)oc2ccc(S(=O)(=O)N(C)C3CCCCC3)cc12 (stereo not shown) | 6.73
CCN(CC)CCN(C(=O)c1ccc(Br)s1)c1nc2cc3c(cc2s1)OCO3.Cl | -12
Cn1cc(S(=O)(=O)Nc2ccc(Oc3ccccc3)cc2)c(=O)n(C)c1=O | 4.83
COc1cc(NC(=O)COC(=O)CNC(=O)c2ccc(C)cc2)c(C)cc1[N+](=O)[O-] | -8.81
CN(C)c1ccc(/C=N/N2CCN(Cc3ccccc3Cl)CC2)cc1 | 13.3
CCC(=O)N1CCc2cc(S(=O)(=O)CCC(=O)N3CCCC(C)C3)ccc21 (stereo not shown) | -1.71
Cc1ccccc1OCC(=O)Nc1ccc(N2CCN(S(C)(=O)=O)CC2)cc1 | -3.82
